Hit rate of the full screen: of about 310,000 compounds, about 14,000 (4.5%) showed an effect of 50% or more. Effects have a minus sign here. The list shows a part of the results.
Molecular target: human ether-à-go-go-related gene (hERG) potassium channel (human, UniProt Q12809)
Assay: primary screen, population patch clamp on CHO cells stably expressing hERG
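Further: peak tail current of the secondary pulse compared with the same well before compound.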

Chain of human ether-à-go-go-related gene (hERG) potassium channel (Q12809 whole entry, looked up): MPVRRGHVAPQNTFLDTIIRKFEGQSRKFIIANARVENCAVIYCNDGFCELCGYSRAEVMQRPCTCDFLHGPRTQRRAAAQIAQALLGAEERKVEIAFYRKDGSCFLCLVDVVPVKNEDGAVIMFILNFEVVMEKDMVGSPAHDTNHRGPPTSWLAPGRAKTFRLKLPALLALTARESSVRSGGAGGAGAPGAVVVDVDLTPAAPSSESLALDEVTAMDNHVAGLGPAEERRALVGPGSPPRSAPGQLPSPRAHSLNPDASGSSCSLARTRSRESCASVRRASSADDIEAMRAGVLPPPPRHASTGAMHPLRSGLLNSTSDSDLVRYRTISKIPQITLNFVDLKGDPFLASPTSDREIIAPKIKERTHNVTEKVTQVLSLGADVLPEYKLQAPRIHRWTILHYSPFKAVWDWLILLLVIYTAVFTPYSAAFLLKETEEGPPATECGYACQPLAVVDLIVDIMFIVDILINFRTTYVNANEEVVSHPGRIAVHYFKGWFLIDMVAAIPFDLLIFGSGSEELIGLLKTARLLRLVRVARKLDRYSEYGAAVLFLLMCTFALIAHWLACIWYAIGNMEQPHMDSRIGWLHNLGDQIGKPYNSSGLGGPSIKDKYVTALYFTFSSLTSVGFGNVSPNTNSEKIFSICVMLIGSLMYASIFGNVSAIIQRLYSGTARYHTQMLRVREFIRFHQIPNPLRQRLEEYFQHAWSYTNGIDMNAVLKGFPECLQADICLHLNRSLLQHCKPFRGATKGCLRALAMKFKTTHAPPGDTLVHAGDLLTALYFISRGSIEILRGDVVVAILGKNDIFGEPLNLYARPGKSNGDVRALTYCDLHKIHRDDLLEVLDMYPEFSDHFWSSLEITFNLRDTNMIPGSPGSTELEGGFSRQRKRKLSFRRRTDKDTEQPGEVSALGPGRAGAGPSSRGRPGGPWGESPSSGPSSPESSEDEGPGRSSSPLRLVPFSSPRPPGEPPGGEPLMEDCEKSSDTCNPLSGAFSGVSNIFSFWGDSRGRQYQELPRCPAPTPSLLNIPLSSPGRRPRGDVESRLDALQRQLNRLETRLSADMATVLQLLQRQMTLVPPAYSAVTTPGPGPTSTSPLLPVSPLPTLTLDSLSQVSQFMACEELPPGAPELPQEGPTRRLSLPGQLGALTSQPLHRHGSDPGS

Row | SMILES | hERG current change (%, negative = inhibition) at 10uM
1 | COc1cccc(OC)c1-c1nn(-c2ncc(C(F)(F)F)cc2Cl)c(=O)o1 | 14.2%
2 | CCC1=NN2C(=N)/C(=C/c3c(C)nn(-c4ccccc4)c3Cl)C(=O)N=C2S1 | -43.1%
3 | Cc1cc(C)cc(NC(=O)Nc2ccc(-n3ccc(C(F)(F)F)n3)cc2)c1 | 15.4%
4 | CC(C)CCNC(=O)CN(Cc1ccco1)C(=O)c1snc(C(N)=O)c1N | -5.71%
5 | c1ccc(-c2cnn3nnnc3n2)cc1 | 5.77%
6 | Cc1cccc(N2CCN(c3ccc(N4C(=O)CCCC4=O)cc3[N+](=O)[O-])CC2C)c1 (centres unmarked) | 14.9%
7 | CCC(NC(=O)C1CCCO1)c1ccccc1 (centres unmarked) | 22.8%
8 | O=C(CSc1nncc2ccccc12)Nc1cccc(O)c1 | -11.6%
9 | Cc1cc(NC(=O)c2cccc(S(=O)(=O)N3CC(c4ccccc4)CC3=O)c2)no1 (centres unmarked) | -23%
10 | NC(=O)C1CCCN(C(=O)c2ccc(Cl)cc2)C1 (centres unmarked) | 6.59%
11 | Cc1noc2c1C(c1ccc(N(C)C)cc1)C1=C(CC(C)(C)CC1=O)N2 (centres unmarked) | -4.91%
12 | O=C(CCCOc1ccccc1)NN1C(=O)NC2(CCCCC2)C1=O | 32.7%
13 | Cc1ccsc1C(=O)N/N=C/c1ccc2c(c1)OCO2 | 8.07%
14 | CC(=O)Nc1cccc(NC(=O)c2csc(C)c2)c1 | 4.56%
15 | COc1cc2c(cc1OC)CN(CC(=O)Nc1ccc(F)cc1F)CC2 | -10.3%
16 | CCCCCC(=O)Nc1sc(C)c(C)c1C#N | -1.66%
17 | Cc1ccc(CNS(=O)(=O)c2c(C(=O)N3CCCCC3)c(C)n(C)c2C)cc1 | 1.58%
18 | CSc1ncccc1C(=O)NNc1cc(Cl)ccc1Cl | 8.87%
19 | Cc1cc(NC(=O)CSc2ncnc3c2cnn3-c2cccc(Cl)c2)no1 | 14.3%
20 | C=CCNc1ncnc2c1[nH]c1ccc(Cl)cc12 | -7.82%

Row | SMILES | hERG current change (%, negative = inhibition) at 10uM
21 | Cc1c(C#N)c(NC(=O)CCl)n(Cc2ccccc2)c1C | 31.1%
22 | Cc1ccc(-n2ncc3c(=O)[nH]c(SCC(=O)N4CCOCC4)nc32)cc1 | 8.98%
23 | COCCSc1ccccc1C(=O)Nc1ccc(Br)cc1 | -18.6%
24 | N#Cc1ccc(S(=O)(=O)NC2CCCCNC2=O)cc1 (centres unmarked) | 15%
25 | Cc1ccc2c(c1)NC(=O)C(CC(=O)NCCN(C)C)O2 (centres unmarked) | -2.42%
26 | COc1ccc(C(=O)N/N=c2\oc3ccccc3cc2C(N)=O)cc1 | -6.68%
27 | CC(C(=O)OCC(=O)Nc1cccc(S(=O)(=O)N2CCOCC2)c1)N1C(=O)c2ccccc2C1=O (centres unmarked) | -58%
28 | Cc1ccc(C(=O)O)cc1NC(=S)NC(=O)C(c1ccccc1)c1ccccc1 | -7.38%
29 | COc1cc(NC(=O)C2CCCCC2)c(OC)cc1NC(=O)CN1CCCCC1 | -12%
30 | Cc1cccc(N2C(=O)CSC23CCCCC3)c1 | 36.1%
31 | Cc1ccc(/C=C2\SC(=S)N(/N=C/c3cc([N+](=O)[O-])ccc3O)C2=O)o1 | 3.82%
32 | CC(C)n1nc(C(=O)OCn2nnc3ccccc3c2=O)c2ccccc2c1=O | 10.2%
33 | NC(=S)N/N=C/c1ccc(-c2ccc([N+](=O)[O-])cc2)o1 | 37.1%
34 | Cc1cccc(NC(=O)CSc2ncnc3nc[nH]c23)c1 | 1.6%
35 | COCCN1C(=O)CC(NNC(=O)c2ccc(S(=O)(=O)N3CCCC3)cc2)C1=O (centres unmarked) | 10%
36 | CCOc1ccc(OCC)c(S(=O)(=O)NCc2ccccc2)c1 | -10.1%
37 | COc1ccc(C(=O)N=C2SC3CS(=O)(=O)CC3N2c2ccc(N(C)C)cc2)cc1OC (centres unmarked) | 4.58%
38 | CC1CCN(S(=O)(=O)c2cnc[nH]2)CC1 | 19.9%
39 | O=C(COc1ccccc1)Nc1nn[nH]n1 | 15.2%
40 | COc1ccc(CN2CCCCCC2)cc1OC | -18.5%

Row | SMILES | hERG current change (%, negative = inhibition) at 10uM
41 | CSc1ccc(/C=C/C(=O)NC23CC4CC(CC(C4)C2)C3)cc1 | 14.6%
42 | Cc1n[nH]c(=S)n(/N=C/c2cccc([N+](=O)[O-])c2)c1=O | 8.42%
43 | Cc1cc(N/N=C/c2ccccc2)nc(N)n1 | -14.5%
44 | CC1CC(C)CN(C(=O)C2CC(=O)N(c3ccc4c(c3)OCCO4)C2)C1 (centres unmarked) | 9.34%
45 | CC(C)(C)S(=O)(=O)/C(C#N)=N/Nc1ccc(C#N)cc1 | 22.1%
46 | O=C(N=Nc1ccc(NOC(=O)c2ccccc2Br)cc1)c1ccccc1O | 16.3%
47 | Cc1ccccc1N1CCN(CCCCN2C(=O)C3CCCN3C2=O)CC1.Cl.O (centres unmarked) | -65.4%
48 | N#Cc1ccccc1COC(=O)c1ccc2c(c1)OCO2 | -16%
49 | Cc1ccc(C)c(CSc2nnc(C)c(=O)n2N)c1 | 6.34%
50 | Cc1c(/C(O)=C2/C(=O)C(=O)N(Cc3cccnc3)C2c2cccs2)cnn1-c1ccccc1 (centres unmarked) | 13.8%
51 | C/C(=N\NC(=O)c1ccc(N2CCCC2=O)cc1)c1ccc(O)cc1O | 13.5%
52 | FC(F)Oc1ccc(NC(=S)NN2CCOCC2)cc1 | 14.9%
53 | COc1cc2c(cc1OC)CN(S(=O)(=O)/C=C/c1ccccc1)CC2 | -9.37%
54 | Fc1ccccc1CCNCc1cccc2ccccc12 | -18.2%
55 | COc1cccc(C(=O)NCCS(=O)(=O)NC2CCCC2)c1 | 12.5%
56 | Cn1nnc2c[n+](CC(=O)c3ccc(Cl)cc3)cc(Br)c21.[Br-] | -24.7%
57 | CC(NC(=S)Nc1ccc(OC(F)F)cc1OC(F)F)C(C)(C)C (centres unmarked) | -1.92%
58 | Cn1c(CN2CCOCC2)nnc1SCC(=O)NC1CCCCC1 | 17.7%
59 | COc1ccc(CC(=O)Nc2ccc(/C(C)=N/NC(=O)c3cccc([N+](=O)[O-])c3)cc2)cc1 | 8.6%

Source: publication PMC4336329 (PLoS ONE, 2015)
